About 1,700 (3.3%) of roughly 52,000 compounds were called active. No stated cut-off is given here; in the data, active means survival mostly below about 52% (no sharp cut-off); inactive means mostly above about 56%. Some of the results follow.
tested on: Wild type; test: growth inhibition of S. aureus wild type versus tarO mutant, primary screen, teichoic acid synthesis inhibitors, RN4220, OD600 (AID 463173); conditions: S. aureus RN4220 wild type/DeltatarO growth, OD600, 18 h, active compounds read low, screened at 18.75 µg/mL (by protocol)

Q: How did the survival turn out when `Cc1ccccc1CSc1cn(CC(=O)N2CCCC2)c2ccccc12` was run?
A: inactive: 85%

Q: `Cc1ccc(NC(=O)c2ccco2)nc1` was tested. Which survival did it give?
A: inactive: 112%

Q: Which survival does the source give for `Cc1ccc(C)c(N2CCN(C(c3ccc(F)cc3)c3nnc(-c4ccccc4)o3)CC2)c1` (stereo unspecified) here?
A: active: 14%

Q: For `CCC(=O)N1CCc2cc(S(=O)(=O)NCCC(=O)Nc3ccc(OC)c(OC)c3)ccc21`, which survival is on record?
A: inactive: 78%

Q: With `COc1ccc(-c2nnn(CC(=O)N(c3ccccc3)C(C(=O)NC3CCCC3)c3ccco3)n2)cc1` (stereo unspecified) as the compound, how does the survival read?
A: inactive: 85%

Q: With `COC(=O)/C=C\c1cc(Br)ccc1C#N` as the compound, how does the survival read?
A: inactive: 98%

Q: How did the survival turn out when `CCOC(=O)c1oc2ccccc2c1CN(C)CCc1ccccc1` was run?
A: inactive: 114%

Q: How did the survival turn out when `Cc1cnc2c(c1SCC(=O)NCc1ccc(F)cc1)c(=O)n(C)c(=O)n2C` was run?
A: inactive: 63%

Q: How did the survival turn out when `COc1cc(-c2nnn(CC(=O)NCc3ccccc3)n2)cc(OC)c1OC` was run?
A: inactive: 102%

Q: With `Cc1cccc(N2CCN(c3ncnc4c3c(-c3ccccc3)cn4-c3ccccc3)CC2C)c1` (stereo unspecified) as the compound, how does the survival read?
A: inactive: 138%

Q: With `CCOc1ccc(-c2cc(C(=O)N3CCN(c4ccc(C)cc4)C(C)C3)c3ccccc3n2)cc1` (stereo unspecified) as the compound, how does the survival read?
A: inactive: 110%

Q: How did the survival turn out when `c1ccc2c(c1)ncn2-c1ncnc2sc3c(c12)CCCC3` was run?
A: inactive: 107%

Q: For `CCCCn1nc(NC(=O)c2cccc(Cl)c2)c2cc3ccc(C)cc3nc21`, which survival is on record?
A: inactive: 88%

Q: With `CC(=O)Nc1ccc(NS(=O)(=O)c2cc3c4c(c2)CC(=O)N4CCC3)cc1` as the compound, how does the survival read?
A: inactive: 128%

Q: With `CC(C)(C)c1ccc(OCC(=O)NC(Cc2c[nH]c3ccccc23)C(=O)O)cc1` (stereo unspecified) as the compound, how does the survival read?
A: inactive: 80%

Q: Which survival does the source give for `COc1cccc(CNC(=O)CCCn2c(=O)c3cccn3c3cccnc32)c1OC` here?
A: inactive: 120%

Q: How did the survival turn out when `COc1ccc(-c2cc3nc(C)c(CCC(=O)N4CCN(c5cc(C)ccc5C)CC4)c(C)n3n2)c(OC)c1` was run?
A: inactive: 72%

Q: How did the survival turn out when `Cn1cc(S(=O)(=O)c2ccc(Cl)cc2)c(=O)c2cc(F)c(N3CCOCC3)cc21` was run?
A: inactive: 73%

Q: `COc1cc(C(=O)NCCS(=O)(=O)N2CCN(c3ccccc3)CC2)cc(OC)c1OC` was tested. Which survival did it give?
A: inactive: 73%

Q: How did the survival turn out when `O=C(NN=C1C2CC3CC(C2)CC1C3)c1ccncc1` was run?
A: inactive: 108%

Q: `CCOc1ccc(NC(=O)CN2CCN(CC(=O)Nc3ccc(OC)cc3)CC2)cc1` was tested. Which survival did it give?
A: inactive: 74%

Q: For `CN(C(=O)CSc1nc2ccc(NC(=O)COc3ccccc3Cl)cc2s1)c1ccccc1`, which survival is on record?
A: inactive: 56%

Q: Which survival does the source give for `Cc1ccc(Nc2c(-c3ccccc3O)nc3cc(C)ccn23)cc1` here?
A: inactive: 73%

Q: With `CCCCCCC1CC=C(C(=O)O)CC1` (stereo unspecified) as the compound, how does the survival read?
A: inactive: 110%

Q: `COc1ccc(N2CCN(S(=O)(=O)CCNC(=O)c3ccc(OC(C)C)cc3)CC2)cc1` was tested. Which survival did it give?
A: inactive: 83%

Q: Which survival does the source give for `COc1ccccc1/C=C/c1nc(C#N)c(N2CCN(c3ccccc3)CC2)o1` here?
A: inactive: 116%

Q: With `COc1ccc(-c2cc(C(F)(F)F)nc(NCCc3ccccc3)n2)cc1` as the compound, how does the survival read?
A: active: -2%

Q: For `Cc1c(-c2ccc(Cl)cc2)c(=O)oc2c(CN3CCOCC3)c(O)ccc12`, which survival is on record?
A: inactive: 84%

Q: For `O=C(NCCc1ccccc1)c1cc2sccc2n1Cc1ccc(F)cc1`, which survival is on record?
A: inactive: 86%

Q: `COC(=O)c1c(SCC(=O)Nc2cc(F)ccc2F)[nH]c2ccc(C)cc2c1=O` was tested. Which survival did it give?
A: inactive: 136%

Q: For `COC(=O)c1cccc(CN2C(=O)SC(Nc3ccc(Br)cc3)C2=O)c1` (stereo unspecified), which survival is on record?
A: inactive: 50%

Q: `CSc1cccc(NC(=O)C(c2ccccc2)N2Cc3ccccc3C2=O)c1` (stereo unspecified) was tested. Which survival did it give?
A: inactive: 75%

Q: For `Cc1ccc(NC(=O)CSc2nc3ccc(NC(=O)c4ccco4)cc3s2)c(C)c1`, which survival is on record?
A: inactive: 63%

Q: Which survival does the source give for `CNC(=O)c1c(NC(=O)c2ccc(S(=O)(=O)N3CCCC(C)C3)cc2)sc2c1CCC2` (stereo unspecified) here?
A: inactive: 101%

Q: Which survival does the source give for `CCCCOc1ccc(C(=O)Nc2onc3c2CCCC3)cc1` here?
A: inactive: 85%

Q: With `COC(=O)C1CCN(C(c2ccccc2Cl)c2sc3nc(-c4ccco4)nn3c2O)CC1` (stereo unspecified) as the compound, how does the survival read?
A: inactive: 80%

Q: `Cn1cc(CCC(=O)O)c2ccccc21` was tested. Which survival did it give?
A: inactive: 117%

Q: How did the survival turn out when `Cc1ccc(NC(=O)C2CCCN(S(=O)(=O)c3ccc(F)cc3)C2)cc1` (stereo unspecified) was run?
A: inactive: 79%

Q: `Cc1cc(C)cc(NC(=O)Nc2cccs2)c1` was tested. Which survival did it give?
A: inactive: 46%

Q: With `CCOC(=O)CN1C(C(=O)c2ccccc2)=C(OC(=O)c2ccccc2)c2ccccc2S1(=O)=O` as the compound, how does the survival read?
A: inactive: 89%

Q: With `CC(=O)Oc1ccc2oc(=O)sc2c1` as the compound, how does the survival read?
A: inactive: 56%

Q: With `O=c1nc2cc3[nH]c4c(=O)c5ccccc5c4[nH]c3cc2n1` as the compound, how does the survival read?
A: inactive: 104%

Q: How did the survival turn out when `CC(C)N1CC=C2C(C1)C(c1ccccc1Cl)C(C#N)=C(N)C2(C#N)C#N` (stereo unspecified) was run?
A: inactive: 108%

Q: Which survival does the source give for `CCOC(=O)c1cccc(NC(=O)c2ccc3snnc3c2)c1` here?
A: inactive: 84%

Q: How did the survival turn out when `COc1ccccc1N1CCN(C(=O)C2CCCN(S(=O)(=O)c3ccc4c(c3)oc(=O)n4C)C2)CC1` (stereo unspecified) was run?
A: inactive: 84%

Q: With `Cc1ccc(C)c(NC(=O)Cn2cnc3nc4c(cc3c2=O)CCCC4)c1` as the compound, how does the survival read?
A: inactive: 72%

Q: With `Cc1ccc(Nc2nc(N)nc(N)c2S(=O)(=O)c2ccccc2)cc1` as the compound, how does the survival read?
A: inactive: 66%

Q: For `COC(=O)c1sccc1S(=O)(=O)N(CC(=O)NCc1ccccc1)c1ccc(C)cc1`, which survival is on record?
A: inactive: 78%

Q: How did the survival turn out when `O=C(NC1CCCCC1)C(c1ccco1)N(C(=O)C1COc2ccccc2O1)c1cccc(F)c1` (stereo unspecified) was run?
A: inactive: 132%

Q: For `CCc1ccc(-n2c(N3CCN(c4cccc(C)c4C)CC3)nc3ccccc3c2=O)cc1`, which survival is on record?
A: inactive: 81%

Q: Which survival does the source give for `COCCNC(=O)CSc1nnc(NC(=O)Nc2ccc(C)cc2)s1` here?
A: inactive: 88%

Q: With `Cc1nc2ccn(Cc3cccnc3)c(=O)c2cc1C(=O)N1CCN(c2ccccc2)CC1` as the compound, how does the survival read?
A: inactive: 79%

Q: How did the survival turn out when `COc1ccccc1C(=O)Nc1nc(-c2ccc(Br)cc2)ns1` was run?
A: inactive: 114%

Q: How did the survival turn out when `CC(=O)Nc1ccccc1-c1nc2ccccc2n(C(C)C(=O)c2ccc(C)c(C)c2)c1=O` (stereo unspecified) was run?
A: inactive: 117%

Q: Which survival does the source give for `CCN(c1ccccc1)S(=O)(=O)c1nnc(NC(=O)COc2ccccc2F)s1` here?
A: inactive: 50%

Q: How did the survival turn out when `CCOc1ccc(CC(=O)NC2CC(=O)N(c3ccc4c(c3)OCCO4)C2)cc1` (stereo unspecified) was run?
A: inactive: 94%

Q: `COc1ccc(-c2[nH]ncc2C(=O)NCc2ccccc2OC)cc1` was tested. Which survival did it give?
A: inactive: 80%

Q: With `Cc1ccc(Nc2cc(-c3ccccc3)nc(C)n2)cc1` as the compound, how does the survival read?
A: inactive: 37%

Q: With `COc1cc(C2C(=O)N(C3CCC(C)CC3)CC(=O)N2CCc2ccc(Cl)cc2)ccc1OC(C)C` (stereo unspecified) as the compound, how does the survival read?
A: inactive: 82%

Q: Which survival does the source give for `Cc1ccc(NC(=O)CN(C)S(=O)(=O)c2cccc3nsnc23)c(C)c1` here?
A: inactive: 74%

Q: How did the survival turn out when `COc1ccc(CNC(=O)C(=O)NCC(c2cccnc2)N2CCN(c3ccccc3F)CC2)cc1` (stereo unspecified) was run?
A: inactive: 97%

Q: Which survival does the source give for `CC1CN(C)C(C)c2c1oc1ccc(N)cc21` (stereo unspecified) here?
A: inactive: 106%

Q: For `CC(=O)Nc1ccc(S(=O)(=O)Nc2ccc3c(c2)n(C)c(=O)n3C)c(C)c1`, which survival is on record?
A: inactive: 84%

Q: How did the survival turn out when `Cc1cc(C)n(-c2nc3cc(Cl)c(Cl)cc3nc2Nc2c(C)cccc2C)n1` was run?
A: inactive: 87%

Q: Which survival does the source give for `Cc1cccc2cc(C(c3nnnn3Cc3ccccc3)N3CCN(C(=O)c4ccco4)CC3)c(=O)[nH]c12` (stereo unspecified) here?
A: inactive: 123%

Q: `Cc1noc(C)c1S(=O)(=O)NCCc1csc2nc(-c3ccc(F)cc3)nn12` was tested. Which survival did it give?
A: inactive: 72%

Q: `Cc1ccc(NC(=O)[C@H](Cc2ccccc2)N2Cc3ccccc3C2=O)cc1` was tested. Which survival did it give?
A: inactive: 86%

Q: Which survival does the source give for `CCSC1=NC2(CCN(C(=O)NC3CCCCC3)CC2)N=C1c1ccc(C)c(C)c1` here?
A: inactive: 74%

Q: Which survival does the source give for `CCc1cccc(NC(=O)c2ccc3c(=O)n4nc(Nc5ccccc5OC)sc4nc3c2)c1` here?
A: inactive: 91%

Q: For `COc1nc(Oc2ccc(=O)n(-c3ccccc3)n2)nc(N(C)C)n1`, which survival is on record?
A: inactive: 77%

Q: How did the survival turn out when `COc1ccc(C(=O)NN=C2CCCC2)cc1` was run?
A: inactive: 102%

Q: How did the survival turn out when `COc1ccc(OC)c(NC(=O)CCc2c(C)nc3c(-c4ccccc4)c(C)nn3c2C)c1` was run?
A: inactive: 73%

Q: `CCCN(CCC)CCNC(=O)c1cc(Sc2ccc(Cl)cc2)nc2ccccc12` was tested. Which survival did it give?
A: inactive: 133%

Q: For `CCOC(=O)c1c(NC(=O)c2cc3ccccc3c(=O)o2)sc2c1CCCC2`, which survival is on record?
A: inactive: 65%

Q: Which survival does the source give for `Cc1cccc(CSCCNC(=O)CN(c2ccccc2)S(=O)(=O)N(C)C)c1` here?
A: inactive: 119%

Q: For `Cc1ccc(S(=O)(=O)c2cn(CC(=O)Nc3ccc4c(c3)OCO4)c3ccc(F)cc3c2=O)cc1`, which survival is on record?
A: inactive: 76%

Q: With `CC1(C)Cc2ccccc2-c2nnc(SCC(N)=O)n21` as the compound, how does the survival read?
A: inactive: 105%

Q: With `O=C(CSc1ncn[nH]1)NCCOc1ccccc1` as the compound, how does the survival read?
A: inactive: 108%

Q: `Cc1cccc(Nc2nc3ccccc3n3c(N)nnc23)c1` was tested. Which survival did it give?
A: inactive: 119%

Q: With `CCc1c(C)nc2cc(-c3ccccc3)[nH]n2c1=O` as the compound, how does the survival read?
A: inactive: 106%

Q: For `Cc1cc2n(n1)CCCN2C(=O)Nc1cccc(C)c1C`, which survival is on record?
A: inactive: 89%

Q: `Cc1ccc(Cn2c(=O)c3cccnc3n(Cc3ccc(F)cc3)c2=O)cc1` was tested. Which survival did it give?
A: inactive: 98%

Q: For `COc1cccc(N2CCN(c3ncc4c(n3)CCN(Cc3ccc(Br)cc3)C4)CC2)c1`, which survival is on record?
A: inactive: 55%

Q: `Cc1ccc(OC(C)C(=O)NCC2(N3CCOCC3)CCCCC2)cc1C` (stereo unspecified) was tested. Which survival did it give?
A: inactive: 86%

Q: For `Cc1c(C(=O)N(C)C)sc2c1c(=O)n(-c1ccc(F)cc1)c(=O)n2CC(=O)N(C)c1ccccc1`, which survival is on record?
A: inactive: 75%

Q: For `COc1ccccc1CNC(=O)CCC1N=C2c3ccccc3N=C(SCC(=O)NCCc3ccccc3)N2C1=O` (stereo unspecified), which survival is on record?
A: inactive: 129%

Q: How did the survival turn out when `Cc1cccc(CNC(=O)c2ccc(Cn3c(SCc4ccccc4)nc4cccnc43)cc2)c1` was run?
A: inactive: 83%

Q: With `CCc1ccc2oc(C(=O)Nc3nc(-c4ccccc4)ns3)c(C)c2c1` as the compound, how does the survival read?
A: inactive: 71%

Q: For `CCOc1ccc(-n2c(SC(C)C(=O)OC)nc3c([nH]c4ccccc43)c2=O)cc1` (stereo unspecified), which survival is on record?
A: active: -2%

Q: `COc1ccc(Cl)cc1NC(=O)c1nc(S(C)(=O)=O)ncc1N(Cc1ccc(C)cc1)Cc1ccco1` was tested. Which survival did it give?
A: inactive: 116%

Q: Which survival does the source give for `Cc1cc2oc(C(=O)Nc3ccc(S(=O)(=O)Nc4onc(C)c4C)cc3)cc(=O)c2cc1C` here?
A: inactive: 89%

Source: PubChem BioAssay AID463173 (ICCB-Longwood Screening Facility, Harvard Medical School, 2010)
